# Laboratory results as given in paper PMC6919601, “Identification of Plasmodium dipeptidyl aminopeptidase allosteric inhibitors by high throughput screening” (PLoS ONE, 2019).
# Out of some 110,000 compounds screened, about 230 (0.21%) showed an effect of 50% or more. This is one part of the list.
# Biological target: DPAP1 (Plasmodium falciparum, UniProt Q8IIJ9)
# Assay: primary screen, percent inhibition; read by cleavage of a fluorogenic dipeptide substrate; higher = more effect of the substance
# Parameters: species or system P. falciparum D10 trophozoite lysates; single well
# 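Note: 30 min substrate incubation versus DMSO and 10 µM JCP410 controls.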
# DPAP1, sequence (Q8IIJ9 whole entry, looked up): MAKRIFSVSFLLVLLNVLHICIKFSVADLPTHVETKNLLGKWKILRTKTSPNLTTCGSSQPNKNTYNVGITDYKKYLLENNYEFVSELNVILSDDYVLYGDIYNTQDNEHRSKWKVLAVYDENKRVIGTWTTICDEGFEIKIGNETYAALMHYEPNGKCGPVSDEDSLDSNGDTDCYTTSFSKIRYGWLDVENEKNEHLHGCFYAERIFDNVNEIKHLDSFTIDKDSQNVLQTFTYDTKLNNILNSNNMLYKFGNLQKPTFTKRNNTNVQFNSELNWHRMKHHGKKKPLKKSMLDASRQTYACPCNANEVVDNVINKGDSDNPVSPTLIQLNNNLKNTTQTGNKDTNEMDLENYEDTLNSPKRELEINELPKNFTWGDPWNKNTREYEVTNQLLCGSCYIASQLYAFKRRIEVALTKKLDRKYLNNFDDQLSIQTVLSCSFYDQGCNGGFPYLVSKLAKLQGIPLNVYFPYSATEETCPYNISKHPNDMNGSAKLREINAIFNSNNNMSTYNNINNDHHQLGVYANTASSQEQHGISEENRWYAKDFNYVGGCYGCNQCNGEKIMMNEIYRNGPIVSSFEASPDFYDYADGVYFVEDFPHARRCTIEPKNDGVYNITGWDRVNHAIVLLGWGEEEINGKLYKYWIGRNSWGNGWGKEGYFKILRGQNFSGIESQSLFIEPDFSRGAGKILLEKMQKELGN
row,SMILES,% Inhibition @ 10 uM [%]
1,CCO/C(O)=C1/C(C)=Nc2ncnn2C1c1ccc(O)cc1 (stereo not shown),-0.339
2,O=C(C1c2ccccc2Oc2ccccc21)N1CCN(c2ccc(F)cc2)CC1,3.45
3,O=C(CNC(=O)c1ccco1)c1ccc(F)cc1,-0.132
4,CCOC(=O)c1c(S(=O)(=O)NC(C)CC)c(C)n(C)c1C (stereo not shown),0.711
5,COc1ccc(C2=C/C(=C/c3ccc4c(c3)OCO4)C(=O)O2)c(OC)c1,-3.74
6,CCCN(CCO)Cc1ccccc1Cl,-3.57
7,COc1ccc(OC)c(CCNC(=O)C2CCN(c3nc4c(C)cc(C)cc4s3)CC2)c1,0.137
8,COc1ccc(CN2CCN(C(=O)c3ccc(-n4ccc5ccccc54)s3)CC2)c(OC)c1OC,9.39
9,CNC(=S)N1CCn2cccc2C1c1ccc(F)cc1 (stereo not shown),-1.43
10,CCOC(=O)C1=C(CSc2nccn2C)NC(=O)NC1c1cc(C)ccc1C (stereo not shown),-0.834
11,Cc1c(CC(=O)N2CCOCC2)c(=O)oc2cc3occ(-c4ccc(Cl)cc4)c3cc12,2.54
12,Cc1cc2nnc(SCC(=O)O)n2c2ccccc12,-2.19
13,CCNc1cc2oc(=O)cc(C)c2cc1C,-0.13
14,COc1cccc(C(=O)Nc2ccccc2C(=O)Nc2cccc(Cl)c2)c1,-0.795
15,Cc1sc(C(=O)O)cc1-c1ccc(C(=O)N[C@@H](Cc2c(F)cccc2F)C(=O)NCC#N)cc1,0.079
16,CCOc1ccc(CNc2ncc(-c3ccccc3)n2C)cc1,-1.11
17,COc1ccc(Br)cc1CNCCc1ccc2c(c1)OCO2,-6.3
18,Cn1c(C(F)(F)F)cc(=O)n(-c2ccc3c(Cl)nn(CC#N)c3c2)c1=O,-1.49
19,O=C(Nc1sc2c(c1C(=O)O)CCC2)c1ccc(Br)cc1,1.78
20,N#Cc1c(NC(=O)c2cc(-c3ccc(F)cc3)on2)sc2c1CCCC2,4.5
21,Cc1ccc(CNC(=O)c2cc3c(-c4ccc(Cl)cc4)nn(C)c3s2)o1,-4.96
22,O=C(Nc1cccnc1)c1nc2ncccn2n1,-3.53
23,O=C(CCc1ccc(S(=O)(=O)NCc2ccccc2)cc1)N1CCN(c2ccc(F)cc2)CC1,-0.95
24,Cc1sc(NC(=O)Nc2ccc(Cl)c(Cl)c2)c(C(N)=O)c1C,-4.03
25,Cc1cc(C)c2c(n1)SCC(=O)N2CCCC(=O)NCc1ccc(Cl)cc1,-2.59

row,SMILES,% Inhibition @ 10 uM [%]
1,Cc1ccc(-n2nc3c(=O)n(CCCC(=O)N4CCC(C)CC4)nc(C)c3c2C)cc1,-2.87
2,CC(C)C(=O)NCCCc1nc2ccccc2n1Cc1ccccc1,-5.92
3,COc1ccc(Cl)cc1S(=O)(=O)NCCC12CC3CC(CC(C3)C1)C2,-3.04
4,CCN(CC)S(=O)(=O)c1ccc(NC(=O)COc2ccc(C)cc2Br)cc1,0.795
5,CCN1CCN(Cc2c(C)n(C)n(-c3ccccc3)c2=O)CC1,1.88
6,CCOC(=O)c1c(C)[nH]c(C)c1S(=O)(=O)NCCc1ccc(Cl)cc1,1.74
7,Cc1c(Cl)cccc1NC(=O)CSCc1cccc(Br)c1,-0.0217
8,COc1ccc(/C=C2\C(=O)NC(=S)N(c3ccc(Cl)cc3)C2=O)c(OC)c1,-5.92
9,O=C(CCC(=O)N1CC2CC(C1)c1cccc(=O)n1C2)NCCc1ccccc1 (stereo not shown),-1.6
10,CCc1ccc(N2CC(C(=O)Nc3ccc(Br)c(OC)c3)CC2=O)cc1 (stereo not shown),-3.6
11,Cc1cc(C)cc(NC(=O)CC2NC3CCCCC3NC2=O)c1 (stereo not shown),3.04
12,O=C(Nc1cccc([N+](=O)[O-])c1)c1cccnc1,-3.03
13,Cc1ccsc1CCNC(=O)c1ccc(-c2ccccc2)s1,-3.96
14,CN1CCC(N(C)Cc2cccnc2)CC1,-4.61
15,COc1ccc(-c2cnc3c(O)ncnc3n2)cc1,2.27
16,O=C(CCc1cn(Cc2ccc(F)cc2)c2ccccc12)N1CCOCC1,0.304
17,Cc1ccnc(NC(=O)CSc2nc(C)c(CC(C)C)[nH]2)c1,2.62
18,COc1cccc(C2(O)CC(C(F)(F)F)=NN2C(=O)C(C)C)c1 (stereo not shown),-4.63
19,CN(C)C(=O)N[C@@H](CSCc1ccccc1)C(=O)NCC#N,4.33
20,CC(=O)c1cc2c(cc1NC(=O)c1ccc(Cl)c(Cl)c1)OCO2,-0.884
21,COc1cc2c(c(Br)c1OC)COC(=O)C21CCCC1,11.1
22,Cc1ccc(Cc2c(C)nc3c(C(=O)NCCC(C)C)cnn3c2C)cc1,-2.26
23,Cc1ccc(C(=O)NCc2nc3nc(C)cc(C)n3n2)cc1,4.4
24,Cc1ccc2oc(=O)c3cc(C(=O)Nc4cc(C)on4)sc3c2c1,-0.646
